Experimental data as given in PubChem BioAssay AID894 (National Center for Advancing Translational Sciences (NCATS), 2007).
Values joined by “and” are separate entries in the source; they are usually repeats but may differ in a detail not shown here. Identical values can stand only once. Hit rate of the full screen: of about 150,000 compounds, about 6,500 (4.3%) were called active. Inconclusive means that the source gave no clear call. Such entries were picked first, then a sample of the others. Calls come from the whole dose curve; as a rule, active = well fitted inhibition curve with a large enough effect (not every such curve was filed as active); inconclusive = small, poorly fitted or top-dose-only effect, or another doubt; inactive = no such curve, though single readings can be large or run the other way. Potencies of inconclusive entries are doubtful fits and often do not repeat.
% is set by controls: 0 for no effect and ±100 for the full control effect; potency is the fitted concentration of half-maximal effect; tags give direction and shape of the fitted curve.

Each compound was assayed against 15-hydroxyprostaglandin dehydrogenase [NAD(+)] (Homo sapiens) (UniProt P15428) (assay: qHTS Assay for Inhibitors of HPGD (15-Hydroxyprostaglandin Dehydrogenase)). Conditions: purified HPGD, NADH fluorescence kinetic, PGE2 substrate; activity change, negative = inhibition: hits give low values.
Chain of UniProt P15428 (P15428 whole entry, looked up): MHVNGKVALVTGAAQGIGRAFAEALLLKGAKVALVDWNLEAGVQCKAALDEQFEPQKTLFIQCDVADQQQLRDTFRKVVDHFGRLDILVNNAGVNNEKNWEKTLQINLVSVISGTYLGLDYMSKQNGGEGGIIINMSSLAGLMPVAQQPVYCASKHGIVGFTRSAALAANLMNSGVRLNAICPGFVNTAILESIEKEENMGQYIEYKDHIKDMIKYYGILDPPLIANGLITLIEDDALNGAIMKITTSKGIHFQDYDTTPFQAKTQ
Summary of the method: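 NADH formation kinetics: reaction with 30 uM PGE2 and 1 mM NAD+ (final), 20 nM enzyme, Tris-HCl pH 8 with Tween 20, after 15 min compound preincubation at room temperature. Fluorescence change, last versus first of five reads.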
For `CC[C@H](C)NC(=O)c1ccc(Cn2c(=S)[nH]c3c([nH]c4ccc(OC)cc43)c2=O)cc1`, the Potency was inconclusive: 25.1 µM [inhibitor, partial curve]. For `C=CCn1c(C)cc(C(=O)COC(=O)c2ccc3c(c2)NC(=O)CS3)c1C`, the Potency was active: 22.4 µM. With `O=C(Cn1cc(C(F)(F)F)ccc1=O)N/N=C/c1cccc(Cl)c1` the activity change, negative = inhibition was inactive: -8.51%. `Cc1sc(NC(=O)/C=C/c2ccc3c(c2)OCO3)nc1-c1ccccc1` was tested, and the Potency was inconclusive: 35.5 µM [inhibitor, partial curve]. With `COc1ccc(C=O)cc1OS(=O)(=O)c1ccc(NC(C)=O)cc1` the Potency was inconclusive: 35.5 µM [inhibitor, single point]. For `O=C(Nc1cccc(-c2nc3ncccc3o2)c1)c1sc2cc(Cl)ccc2c1Cl`, the Potency was inconclusive: 25.1 µM [inhibitor, partial curve]. In the case of `C[Si](C)(C)C#Cc1ccccc1NC(=S)Nc1ccccc1`, the Potency is reported as inconclusive: 17.8 µM [inhibitor, partial curve]. In the case of `COc1cccc(NC(=O)CN2CCC(C)CC2)c1`, the activity change, negative = inhibition is reported as inactive: -18.9%. For `O=S(Cc1ccc(Br)cc1)Cc1nnc(SCc2c(Cl)cccc2Cl)n1-c1ccccc1` (stereo not given), the activity change, negative = inhibition was inactive: -14.8%. `OCCNc1nc(-c2ccccc2)c2ccccc2n1` was tested, and the Potency was inconclusive: 14.1 µM [inhibitor, partial curve]. `CCN(CC)c1ccc(N2C(=O)/C(=C/c3cccnc3)SC2=S)cc1` was tested, and the activity change, negative = inhibition was inactive: -6.21%. In the case of `N#C/C(=C\c1ccc(-c2cccc(C(F)(F)F)c2)o1)C(=O)Nn1cnnc1`, the Potency is reported as active: 1.41 µM. `CCOc1ccc(-c2nnc(-c3ccncc3)o2)cc1` was tested, and the Potency was inconclusive: 14.1 µM [inhibitor, partial curve]. For `CC1CN(c2oc(-c3ccco3)nc2C#N)CC(C)O1` (stereo not given), the Potency was inconclusive: 25.1 µM [inhibitor, partial curve]. With `Cc1ccccc1OC(C)C(=O)NC1CCCC1` (stereo not given) the Potency was active: 12.6 µM. For `N=c1n(CCN2CCOCC2)c2ccccc2n1CC(=O)c1ccc(Cl)c(Cl)c1`, the Potency was inconclusive: 31.6 µM [inhibitor, partial curve]. For `N=C1/C(=C\c2ccc(SCc3ccco3)o2)C(=O)N=C2SC=NN12`, the Potency was active: 25.1 µM. For `CCC(=O)NCCc1cc2cc(C)c(C)cc2[nH]c1=O`, the Potency was inconclusive: 31.6 µM [inhibitor, partial curve, poor fit]. For `O=C(Nc1ccc(F)cc1)C(c1ccccc1)N1CCN(S(=O)(=O)c2c(F)cccc2F)CC1` (stereo not given), the activity change, negative = inhibition was inactive: -8.47%. `O/N=C\c1ccc(-c2ccccc2)o1` was tested, and the Potency was active: 14.1 µM. For `O=C(Oc1ccccc1)N1CCC[C@@]2(CCN(c3ccccn3)C2)C1`, the Potency was inconclusive: 28.2 µM [inhibitor, single point]. For `Cc1ccc(/C=c2\sc3nc(-c4ccccc4Br)nn3c2=O)o1`, the Potency was active: 20 µM. With `C=NC(C(=O)NC1C(=O)N2C1SC(C)(C)C2C(=O)O)c1ccccc1` (stereo not given) the Potency was inconclusive: 15.8 µM [inhibitor, partial curve]. In the case of `O=C(NCCCCc1ccccc1)c1ccc(Br)o1`, the Potency is reported as active: 14.1 µM. `Clc1ccc(-c2nnc(NCc3ccccc3)c3ccccc23)cc1` was tested, and the Potency was active: 5.62 µM. `CCOc1ccccc1N(C(=O)c1snc(C(N)=O)c1N)C(C(=O)NCCC(C)C)c1ccco1` (stereo not given) was tested, and the Potency was inconclusive: 25.1 µM [inhibitor, partial curve]. `COc1ccc2c(c1OC)C(=O)N1c3ccccc3SC21` (stereo not given) was tested, and the Potency was inconclusive: 20 µM [inhibitor, partial curve]. In the case of `CC(=O)c1cccc(NC(=O)Nc2ccc(C(=O)N3CCOCC3)cc2)c1`, the Potency is reported as active: 12.6 µM. In the case of `CN1C(=O)C2(Oc3ccccc3C3CC(c4ccccc4)=NN32)c2ccccc21` (stereo not given), the activity change, negative = inhibition is reported as inactive: -11.9%. In the case of `O=C(NC(c1ccccc1)C(Cl)Cl)c1ccccc1` (stereo not given), the Potency is reported as inconclusive: 3.98 µM [inhibitor, single point]. For `CC(C)COP(=O)(c1ccc(N(C)C)cc1)C(O)c1ccncc1` (stereo not given), the Potency was active: 28.2 µM. `CCSc1ccc2nnc(-c3ccc(F)cc3)n2n1` was tested, and the Potency was inconclusive: 28.2 µM [inhibitor, single point]. In the case of `COC(=O)c1ccc(Cl)c(NC(=O)NC23CC4CC(CC(C4)C2)C3)c1`, the activity change, negative = inhibition is reported as inactive: -10.8%. In the case of `Cc1noc(C)c1COC(=O)c1ccc(S(=O)(=O)NCc2ccco2)cc1`, the Potency is reported as inconclusive: 25.1 µM [inhibitor, partial curve]. With `C#CCN1C(=O)S/C(=C/C=C/c2ccc(N(C)C)cc2)C1=O` the Potency was inconclusive: 31.6 µM [inhibitor, single point]. For `CC[C@@H]1C(c2cccc(C)c2)=NN(c2ccc(Br)cc2)[C@H]1C(=O)N1CCOC1=O`, the Potency was inconclusive: 28.2 µM [inhibitor, partial curve]. With `COC(=O)c1ccccc1NC(=O)CSc1nnc(Cc2ccc(Cl)cc2)o1` the Potency was active: 28.2 µM. In the case of `COc1ccccc1-c1c(C)c(C)nc(N)c1C#N`, the Potency is reported as inconclusive: 4.47 µM [inhibitor, single point]. `COc1ccccc1-n1c(N)c(C(=O)NCC2CCCO2)c2nc3ccccc3nc21` (stereo not given) was tested, and the Potency was inconclusive: 28.2 µM [inhibitor, partial curve]. For `Cc1cc(Cl)ccc1OC(C)C(=O)Nc1ccc(S(=O)(=O)Nc2cnc3ccccc3n2)cc1` (stereo not given), the Potency was inconclusive: 25.1 µM [inhibitor, partial curve]. With `CCSc1ccccc1C(=O)Nc1cccc(OC)c1` the Potency was inconclusive: 44.7 µM [inhibitor, single point]. In the case of `COc1cc(/C=N/N=C2/NC(=O)C(CC(=O)O)S2)ccc1OCc1ccc(Cl)cc1` (stereo not given), the Potency is reported as inconclusive: 25.1 µM [inhibitor, partial curve]. `COc1ccccc1NC1=C(N2CCCCC2)C(=O)c2ccccc2C1=O` was tested, and the activity change, negative = inhibition was inactive: -4.43%. For `CCOC(=O)C1CCCN(c2c(N3CCc4ccccc4C3)c(=O)c2=O)C1` (stereo not given), the Potency was active: 28.2 µM. In the case of `c1ccc(-n2nnnc2SCc2cn3ccccc3n2)cc1`, the activity change, negative = inhibition is reported as inactive: -7.04%. With `COc1ccc2sc(SCCCS(=O)(=O)O)[n+](CCCS(=O)(=O)[O-])c2c1` the Potency was inconclusive: 20 µM [inhibitor, partial curve]. For `Cc1cc(C)c2c(N)c(C(=O)Nc3nccs3)sc2n1`, the Potency was inconclusive: 28.2 µM [inhibitor, partial curve]. With `CC(C)Cn1c(N)c(C(=O)COC(=O)c2cc(C(F)(F)F)nc3ccccc23)c(=O)n(C)c1=O` the Potency was inconclusive: 31.6 µM [inhibitor, partial curve, poor fit]. For `CC(C)(Oc1ccc(Cl)cc1)C(=O)OCn1nnc2ccccc2c1=O`, the Potency was inconclusive: 20 µM [inhibitor, partial curve]. `COCC(C)NC(=O)CCS(=O)(=O)c1nc(-c2ccc(OC)cc2)cc(C(F)(F)F)n1` (stereo not given) was tested, and the activity change, negative = inhibition was inactive: -26.3%. For `O=C(O)c1cccc(NC(=O)C2CC(=O)N(Cc3ccccc3)C2)c1` (stereo not given), the activity change, negative = inhibition was inactive: -6.22%. For `CCOc1ccc2cc(S(=O)(=O)N3CCOCC3)ccc2c1`, the Potency was inconclusive: 39.8 µM [inhibitor, single point]. `CCCCC[C@H](O)/C=C/[C@H]1C=CC(=O)[C@@H]1CCCCCCC(=O)O` was tested, and the activity change, negative = inhibition was inactive: -7.03%. For `CN1CCCN([C@@H](c2ccccc2)c2ccc(Cl)cc2)CC1`, the activity change, negative = inhibition was inactive: 2.21%. With `COc1ccccc1[C@@H]1C(c2cccc(Cl)c2)=NN(c2ccc(Br)cc2)[C@H]1C(=O)N1CCOC1=O` the Potency was inconclusive: 35.5 µM [inhibitor, partial curve] and inconclusive: 20 µM [inhibitor, partial curve]. For `NC(=O)NCCS[C@H]1CCCC[C@@H]1O`, the activity change, negative = inhibition was inactive: -0.72%. `CC1CC(C)CN(C(=O)c2ccc(NC(=O)c3ccc(=O)[nH]c3)cc2)C1` (stereo not given) was tested, and the Potency was active: 7.94 µM. In the case of `CCc1c(C)sc(NC(=O)C2CCCCC2C(=O)O)c1C(N)=O` (stereo not given), the Potency is reported as active: 3.98 µM. In the case of `CC1CCc2sc3nc(NCc4ccco4)n4ncnc4c3c2C1` (stereo not given), the Potency is reported as inconclusive: 25.1 µM [inhibitor, partial curve, poor fit]. With `CCc1cc2ccc(C)cc2nc1SCC(=O)NNC(=O)c1ccco1` the activity change, negative = inhibition was inactive: -0.0685%. With `COC(=O)c1cccc(S(=O)(=O)N(Cc2ccco2)Cc2cc3cc(OC)ccc3[nH]c2=O)c1` the Potency was inconclusive: 35.5 µM [inhibitor, partial curve]. With `O=C(Cn1c2ccccc2c(=O)c2ccccc21)N/N=C/c1cc([N+](=O)[O-])ccc1N1CCCCCC1` the Potency was inconclusive: 22.4 µM [inhibitor, single point]. In the case of `Cc1nc2ccccn2c1-c1nnco1`, the Potency is reported as inconclusive: 31.6 µM [inhibitor, partial curve]. For `COc1ccc(C(NC(=O)/C=C/c2ccco2)c2ccc(OC)c(OC)c2)cc1OC`, the activity change, negative = inhibition was inactive: -12.5%. In the case of `CC1=CC2C(C)(C)CC(=O)C[C@]2(C)CC1COc1ccc2c(c1)CC(=O)C=C2` (stereo not given in full), the Potency is reported as inconclusive: 15.8 µM [inhibitor, partial curve]. In the case of `O=C(Nc1ccccc1F)N(CCCN1CCOCC1)Cc1cc2cc3c(cc2[nH]c1=O)OCCO3`, the Potency is reported as inconclusive: 20 µM [inhibitor, partial curve]. With `Cc1nn(-c2ccccc2)c(C)c1/C=N/NC(=O)c1cc(C(C)(C)C)[nH]n1` the activity change, negative = inhibition was inactive: -26.7%. `C=CCOc1ccc(C=Nc2ccc(Cl)cc2)c(O)c1` was tested, and the Potency was inconclusive: 35.5 µM [inhibitor, partial curve]. For `Cc1cc(C)c(C#N)c(=N)o1`, the Potency was inconclusive: 14.1 µM [inhibitor, partial curve]. `CCOC(=O)c1c(C2COc3ccccc3O2)csc1NC(=O)c1ccco1` (stereo not given) was tested, and the Potency was inconclusive: 11.2 µM [inhibitor, partial curve].
